Measurements reported in PubChem BioAssay AID588855 (National Center for Advancing Translational Sciences (NCATS), 2011).
Where “and” joins values, the source holds several entries; their conditions need not be identical. Equal values may be shown once. Screen size: about 410,000 compounds; about 5,000 (1.2%) were called active. The shares of active, inactive and inconclusive entries below differ from those in the screen. Calls come from the whole dose curve; as a rule, active = well fitted inhibition curve with a large enough effect; inconclusive = small, poorly fitted or top-dose-only effect; inactive = no such curve, though single readings can be large or run the other way. A potency beside an inconclusive call is a rough fit, not a confirmed value.

Experiment: qHTS for Inhibitors of TGF-b; note: nearly all actives have a fitted effect of over 65% in size
Settings: HepG2 CAGA-GFP TGF-b/SMAD3 reporter, GFP fluorescence, 18 h, TGF-beta stimulated, 500 pg/mL final; series mostly up to 46.1 µM
Summary of the method: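 Smad-responsive CAGA-GFP expression was quantified in HEPG2 cells exposed to compounds and 500 pg/mL final TGF-beta for 18 h at 37 degrees C; unstimulated wells defined full inhibition.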
Potency is the fitted concentration of half-maximal effect; tags give direction and shape of the fitted curve.

| SMILES | Potency |
| --- | --- |
| COc1ccc(CCN2C(=O)C=CC2=O)cc1OC | inconclusive: 22.4 µM [inhibitor, single point] |
| CC(=O)Nc1cccc(C(=O)/C=C/c2ccc(F)cc2)c1 | inconclusive: 5.62 µM [inhibitor, full curve, poor fit] |
| Cc1ccc(-c2noc(COc3ccc4c(c3)OCO4)n2)cc1 | inactive |
| COc1ccc(C2c3c(n(C)c4ccccc34)C(=O)N2CC(=O)Nc2c(C)cc(C)cc2C)cc1 (centres undefined) | inconclusive: 35.5 µM [inhibitor, single point] |
| Brc1cccc(-c2nc3ccc(Br)cn3c2Cc2ccccc2)c1 | inconclusive: 17.8 µM [inhibitor, single point] |
| Cc1ccc(-c2csc(N(CCCN3CCOCC3)C(=O)c3ccco3)n2)cc1 | inconclusive: 2.24 µM [inhibitor, full curve, poor fit] |
| Cc1nc(N(C)Cc2ccccc2)c2c(C)c(C)sc2n1 | inconclusive: 12.6 µM [inhibitor, partial curve, poor fit] |
| COCCNC(=O)C1CC(=O)N(C2CCCCC2)C1 (centres undefined) | inconclusive: 35.5 µM [inhibitor, single point] |
| C/C(=N\Nc1nc(C)cc(C)n1)c1ccc(N2CCOCC2)cc1 | inconclusive: 3.16 µM [inhibitor, full curve, poor fit] |
| CCCCNC(=O)c1onc(CSc2ccccc2CC)c1C(=O)O | inconclusive: 3.98 µM [inhibitor, full curve, poor fit] |
| CC[C@]12c3[nH]c4ccc(OC)cc4c3CCN1C(=O)C(CC(=O)NCc1ccc(OC)c(OC)c1)C[C@@H]2C(=O)N1CCN(C(=O)C2CC2)CC1 (some centres undefined) | inactive |
| O=C(CSc1ccccc1C(=O)NCc1ccccc1)NC12CC3CC(CC(C3)C1)C2 | inconclusive: 35.5 µM [inhibitor, single point] |
| O=C(c1ccc(Cl)cc1Cl)N1CCN(c2ccccn2)CC1 | inconclusive: 35.5 µM [inhibitor, single point] |
| CC(=O)OC1CCC2(C)C(CCC3C2CC(=O)C2(C)C3CC(C3CCCC3=O)C2C(C)=O)C1 (centres undefined) | inactive |
| Cc1cccc(NC(=O)CC2Nc3cccc4cccc(c34)NC2=O)c1 (centres undefined) | inconclusive: 35.5 µM [inhibitor, single point] and inconclusive: 15.8 µM [inhibitor, single point] |
| Cc1cc(-c2ccc(C(C)C)c(S(=O)(=O)N3CCOc4ccccc43)c2)on1 | inconclusive: 10 µM [inhibitor, partial curve, poor fit] |
| Cc1ccc(N(C)C(=O)CC(C)S(=O)(=O)c2ccc3c(c2)NC(=O)CO3)cc1 (centres undefined) | inconclusive: 6.31 µM [inhibitor, partial curve] |
| CC(C)N(C(=O)[C@H]1CC(CC(=O)NCCC2=CCCCC2)C(=O)N2CCc3c([nH]c4ccccc34)[C@]12C)C(C)C (some centres undefined) | inconclusive: 10 µM [inhibitor, partial curve, poor fit] |
| CCCOC(=O)C1=C(C)OC23OC(N)=C(C#N)C12C(=O)c1ccccc13 (centres undefined) | inconclusive: 17.8 µM [inhibitor, single point] |
| Cc1[nH]c2ccccc2c1C(=O)COC(=O)c1c(-c2ccccc2)noc1C | inconclusive: 35.5 µM [inhibitor, single point] |
| COc1ccccc1N(C)S(=O)(=O)c1ccc(C(=O)NNC(=O)c2ccccc2O)cc1 | inactive |
| O=C(NC1CCN(Cc2ccccc2)CC1)C1CCCN(c2nnc(-n3cccc3)s2)C1 (centres undefined) | inactive |

| SMILES | Potency |
| --- | --- |
| O=C(CSc1n[nH]c(-c2cccs2)n1)N1CCCCC1 | inconclusive: 5.62 µM [inhibitor, single point] |
| O=C(Nc1nc2ccc(Cl)cc2s1)C1CC1 | inconclusive: 12.6 µM [inhibitor, single point] |
| CCC1CCCCN1Cc1c(O)ccc2c(=O)c(Oc3ccccc3Cl)c(C(F)(F)F)oc12 (centres undefined) | inconclusive: 35.5 µM [inhibitor, single point] |
| O=C(NC(NC(=S)Nc1cc(Cl)ccc1Cl)C(Cl)(Cl)Cl)c1ccco1 (centres undefined) | active: 15.8 µM |
| Cc1oc2ncn(CC(C)C)c(=O)c2c1C(=O)NCCc1ccc(Cl)cc1 | inconclusive: 6.31 µM [inhibitor, partial curve, poor fit] |
| NNc1nc(NCc2ccccc2)nc(N2CCOCC2)n1 | inactive |
| Cc1ccccc1Cn1c(=N)n(CC(=O)c2ccco2)c2ccccc21 | active: 10 µM |
| O=C(c1ccccc1C(=O)N(c1ccccc1)c1ccccc1)N1CCCCC1 | inconclusive: 12.6 µM [inhibitor, single point] |
| CCOC(=O)COc1ccc(/C=C(\C#N)c2nc3ccc(C)cc3[nH]2)cc1OC | inconclusive: 7.08 µM [inhibitor, partial curve, poor fit] |
| O=C(CCn1c(=S)[nH]c2ccccc2c1=O)Nc1cccc(Cl)c1 | inconclusive: 6.31 µM [inhibitor, full curve, poor fit] |
| Cc1ccc(-c2csc(NC(=O)Cc3ccc(F)cc3)n2)o1 | inconclusive: 15.8 µM [inhibitor, single point] |
| Cc1ccc2c(CC(=O)Nc3cccc(C(F)(F)F)c3)coc2c1 | inconclusive: 22.4 µM [inhibitor, single point] |
| C#CCN1[C@@H]2CCN(C2)c2cc(Br)ccc2S1(=O)=O | inconclusive: 35.5 µM [inhibitor, single point] |
| COc1ccccc1-c1cnn2c(NCc3ccccc3)cc(C)nc12 | inactive |
| Cc1ccc(S(=O)(=O)N2CCC(Oc3cccc(C(F)(F)F)c3)CC2)cc1 | inconclusive: 17.8 µM [inhibitor, single point] |
| CCN1C/C(=C/c2ccc(OC)c(O)c2)C(=O)/C(=C/c2ccc(OC)c(O)c2)C1 | inconclusive: 3.98 µM [inhibitor, single point] |
| CCN1CCN(Cc2ccc(NC(=O)c3ccc(C)c(NC(=O)C(=O)c4c[nH]c5ccccc45)c3)cc2C(F)(F)F)CC1 | active: 17.8 µM |
| COc1ccc(S(=O)(=O)Nc2ccc3c(c2)sc(=O)n3C)cc1Cl | inconclusive: 7.08 µM [inhibitor, partial curve, poor fit] |
| COc1ccc(-c2ccoc2)cc1C1C2C=CCC(C)C2C(=O)N1Cc1ccccc1 (centres undefined) | active: 15.8 µM |
| CCc1ccc(CN(C)C(=O)CCc2nc3ccccc3n(-c3ccc(OC)cc3)c2=O)cc1 | inconclusive: 20 µM [inhibitor, partial curve, poor fit] |
| OC(c1cc(Cl)cc(Cl)c1)c1ncc(-c2ccccc2F)[nH]1 (centres undefined) | inconclusive: 35.5 µM [inhibitor, single point] |
| NC(=O)CN1C(=O)C2(SCC(=O)N2c2cccc(F)c2)c2ccccc21 (centres undefined) | inactive |

| SMILES | Potency |
| --- | --- |
| Cc1cccc(NC(=O)CCc2nc3sc4c(c3c(=O)[nH]2)CCCC4)c1 | inconclusive: 35.5 µM [inhibitor, single point] |
| CN1c2ccccc2N(C)C1(C)c1cccc2ccccc12 | inconclusive: 35.5 µM [inhibitor, single point] |
| CCCCCN1C2=NCCN2c2ccccc21 | inconclusive: 35.5 µM [inhibitor, single point] |
| Cc1cc(C(=O)Nc2ccc3c(c2)OCCO3)c(C)o1 | inconclusive: 22.4 µM [inhibitor, partial curve, poor fit] |
| C/C(Cn1nnc([N+](=O)[O-])n1)=N\NC(=O)c1ccccc1 | active: 11.2 µM |
| O=C(N/N=C/C(Br)=C\c1ccccc1)c1cccs1 | inconclusive: 35.5 µM [inhibitor, single point] |
| Cc1ccc(CSC(Nc2ccc(F)cc2)=C(C#N)C#N)cc1 | active: 7.08 µM |
| O=C(CCS(=O)(=O)Cc1ccc(Cl)cc1)NCCCN1CCN(c2ccccc2F)CC1 | inconclusive: 28.2 µM [inhibitor, single point] |
| CCc1ccc(CN(Cc2ccco2)C(=O)COc2ccccc2Cl)cc1 | inconclusive: 22.4 µM [inhibitor, partial curve, poor fit] |
| CCOC(=O)N1CCN(S(=O)(=O)c2c(C(=O)N3CCCCC3)c(C)n(C)c2C)CC1 | inactive |
| O=C(O)c1ccccc1NC(=S)NC(=O)c1cccc2ccccc12 | inactive |
| Cc1ccc(-c2nnn3c2nc(NCCc2ccccc2)c2ccccc23)cc1 | inactive |
| Cc1cccc(N2CCN(c3ccc(N4C(=O)CCCC4=O)cc3[N+](=O)[O-])CC2C)c1 (centres undefined) | inconclusive: 3.16 µM [inhibitor, full curve] |
| COCCCn1cnnc1SC(C)C(=O)Nc1ccc(S(=O)(=O)N2CCOCC2)cc1 (centres undefined) | inactive |
| O=S(=O)(CCN1CCN(C(c2ccccc2)c2ccccc2)CC1)C(F)(F)F | inconclusive: 15.8 µM [inhibitor, single point] |
| Cc1nnc2ccc(-c3cccc(NS(=O)(=O)c4ccccc4[N+](=O)[O-])c3)nn12 | inactive |
| COc1cc(NC(=O)Nc2cccc(Cl)c2)c(OC)cc1NC(=O)CN1CCCCC1 | inconclusive: 35.5 µM [inhibitor, single point] |
| COc1ccc(N2CCN(C(=O)CSc3nnc(-c4cc5ccccc5cc4O)n3C)CC2)cc1 | inconclusive: 12.6 µM [inhibitor, partial curve, poor fit] |
| Cc1cc(NC(=O)NC(=O)c2ccc(F)cc2F)n[nH]1 | inconclusive: 1.41 µM [inhibitor, full curve, poor fit] |
| CCc1cc2c(=O)n3c(nc2s1)-c1[nH]c2ccc(OC)cc2c1CC3 | inconclusive: 3.55 µM [inhibitor, full curve, poor fit] |
